The campaign covered roughly 340,000 compounds. About 6,900 (2%) were called active. Cut-off read from the data, not from the text of the source: active = inhibition above about 30%; inactive = below that, where a call was filed. The list shows a part of the results, in another mix than the full data. Where no call is shown, the source filed none.
biological target: D(2) dopamine receptor (Homo sapiens) (UniProt P14416); assay: HTS Assay for Allosteric Antagonists of the Human D2 Dopamine Receptor: Primary Screen for Antagonists; conditions: HEK293 TREx D2 cells, calcium flux, dopamine EC80; at 10 µM; stronger effect = higher value; note: 0% is about no effect
UniProt P14416, sequence (P14416 whole entry, looked up): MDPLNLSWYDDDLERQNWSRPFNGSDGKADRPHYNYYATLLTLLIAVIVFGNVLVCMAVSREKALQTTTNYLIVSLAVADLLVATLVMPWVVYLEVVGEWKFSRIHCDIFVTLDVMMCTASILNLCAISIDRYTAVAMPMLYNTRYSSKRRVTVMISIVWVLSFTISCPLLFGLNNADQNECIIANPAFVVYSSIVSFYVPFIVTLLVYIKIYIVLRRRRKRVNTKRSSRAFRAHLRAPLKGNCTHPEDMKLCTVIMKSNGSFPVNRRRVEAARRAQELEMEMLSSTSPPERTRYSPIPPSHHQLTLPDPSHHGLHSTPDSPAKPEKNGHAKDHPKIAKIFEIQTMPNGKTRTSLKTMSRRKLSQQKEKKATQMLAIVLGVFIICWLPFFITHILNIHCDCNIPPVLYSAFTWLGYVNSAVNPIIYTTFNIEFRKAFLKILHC
How it was run: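 Dopamine at EC80 is the agonist stimulus; test compounds precede it by 180 s. Calcium flux read kinetically in a force-coupled, inducible HEK293 T-REx D2 cell line.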

SMILES	inhibition
CCNc1nc(NC(C)CC)nc(Oc2ccc(OCC)nn2)n1 (configuration not stated)	7.35%
CC(=O)N1c2c(cc(Br)cc2S(=O)(=O)Nc2ccc(OC(F)(F)F)cc2)CC1C (configuration not stated)	-13.7%
CCOc1ccc(CNC(=O)Cn2cc3c(n2)-c2c(oc(C(=O)N4CCCC4)c2C)CC3)cc1	-27.7%
CCCC1=Nc2cc(C(=O)NCC(C)c3ccccc3)ccc2Sc2ccccc21 (configuration not stated)	3.83%
Cn1c(=O)c(C(=O)COC(=O)c2cc(-c3ccccc3)nc3ccccc23)c(N)n(Cc2ccccc2)c1=O	active: 30.6%
Cc1ccc(C2c3c(-c4ccccc4O)n[nH]c3C(=O)N2CCc2ccccc2)cc1 (configuration not stated)	-1.45%
CC1CCCN(C(=O)CCS(=O)(=O)c2cc3c(cc2Cl)NC(=O)CO3)C1 (configuration not stated)	-1.4%
COc1cccc(CNC(=O)Cn2nc3c(cc2=O)CCCC3)c1OC	12.4%
COC(=O)c1c(-c2ccc(Cl)cc2)noc1N1CCN(c2cccc(C)c2C)CC1	-10.7%
CCc1cnc2c(c1SCC(=O)Nc1ccc(OC)c(OC)c1)c(=O)n(C)c(=O)n2C	-5.34%
C=CCn1c(-c2sc3nc(C)cc(C)c3c2N)n[nH]c1=S	active: 31.6%
O=C(NCc1ccc(Cl)cc1)c1ccc2oc(=O)n(Cc3ccccc3)c2c1	2.41%
CCOC(=O)c1c(O)cc(C)cc1Nc1ccccc1	active: 32.2%
CCOC(=O)Cn1c(=O)oc2cc(S(=O)(=O)N3CCCC(C)C3)ccc21 (configuration not stated)	-9.3%
Cc1nc(-c2cccc(NC(=O)COc3ccc(Cl)cc3)c2)cs1	active: 70%
CCCCn1cc(S(=O)(=O)c2ccc(Cl)cc2)c(=O)c2cc(F)c(N3CCCC(C)C3)cc21 (configuration not stated)	19.3%
COC(=O)c1c(SC)nc2ccccc2c1OCc1ccc(C)cc1	-4.12%
CCOC(=O)c1c(C)[nH]c(C)c1S(=O)(=O)N1CCCC(C(=O)NCc2ccc(C)cc2)C1 (configuration not stated)	-5.73%
CCc1ccccc1N1C(=O)N(CC(=O)c2ccc(Cl)cc2)c2ccccc2S1(=O)=O	-3.44%
Cc1ccc(Cn2c(=O)n(CCc3ccccc3)c(=O)c3c(C)c(C)sc32)cc1	-17.7%
CCOc1ccc(C2=C(C(=O)CC)Sc3nncn3N2C(=O)CC)cc1	1.98%

SMILES	inhibition
COc1ccc(Nc2cc(C(=O)NCc3cccs3)c3ccccc3n2)cc1	-16.1%
CCN1CCN(c2nc(Nc3cccc(F)c3)nc(N)c2[N+](=O)[O-])CC1	active: 73.4%
COc1ccc(CCNC(=O)CSc2cn(CCNC(=O)c3ccccc3F)c3ccccc23)cc1OC	3.06%
CN1CCN(C(=O)C(=O)Nc2c3c(nn2-c2cccc(Cl)c2)CSC3)CC1	-9.24%
CCCCOC(=O)Cn1nnc2sc(-c3ccccc3)cc2c1=O	-17.6%
O=C(CSc1ncc(-c2ccccc2)[nH]1)Nc1ccc(F)cc1F	-16.5%
O=C(CCCCn1c(=O)c2ccccc2n(CC(=O)Nc2ccc(F)cc2F)c1=O)NCc1ccccc1Cl	-16.2%
COC(=O)C1=C(c2ccccc2)c2ccccc2S(=O)(=O)N1CC(=O)Nc1cccc(C(C)=O)c1	16.4%
Cc1ccc(CCNC(=O)c2ccc(NC(=O)N3CC(C)Sc4ccccc43)cc2)cc1 (configuration not stated)	-3.8%
COc1cccc(NC(=O)c2sc3nc(C)c(C(=O)Nc4ccc(C)cc4C)c(-c4ccccc4Cl)c3c2N)c1	10.3%
CCc1ccc(-c2nc(CN3CCC(C(=O)NCCc4ccc(Cl)cc4)CC3)c(C)o2)cc1	13.3%
CCOC(=O)c1ccccc1NC(=O)Cn1ncc2c([nH]c3ccccc32)c1=O	5.2%
COc1cccc(C2CC(=O)Nc3cc4c(cc32)OCCO4)c1OC (configuration not stated)	3.1%
CCc1ccccc1NC(=O)CCn1nc(C)c2c(C)n(-c3ccccc3)nc2c1=O	10.4%
Cc1ccccc1Cn1c(SCc2ccc(C(=O)NC(C)c3ccccc3)cc2)nc2ccncc21 (configuration not stated)	-6.04%
CCc1ccc(-n2c(=O)c3c4c(sc3n(CC(=O)NCCCOC)c2=O)CCCC4)cc1	24.9%
Fc1ccc(NCc2cccn2-c2nnc(N3CCOCC3)s2)cc1	10%
CC1CCN(c2ncnc3c2cnn3-c2ccc(F)cc2)CC1	-0.0479%
O=C(NCCc1cccs1)c1ccc(Cn2c(SCc3ccc(F)cc3)nc3cccnc32)cc1	-13.3%
COc1ccc(C(=O)CN2CCN(S(=O)(=O)c3ccc(C(C)C)cc3)CC2)cc1	14.3%
COc1ccc(CN2CCn3ncc(C(=O)Nc4cc(C)cc(C)c4)c3C2=O)cc1	active: 37.7%

SMILES	inhibition
COc1cccc(CN2CCc3nc(Nc4ccc5c(c4)OCCO5)ncc3C2)c1	9.07%
Cc1ccc2nc(N(Cc3cccnc3)C(=O)Cc3ccccc3)sc2c1	-11.3%
COc1ccc(C(=O)/C=C2\Sc3ccccc3N2C)cc1	active: 40.5%
Cc1ccc(-c2nc3nc(C)cc(N4CCN(c5cc(Cl)ccc5C)CC4)n3n2)cc1	0.786%
COc1cccc(-n2c(SCC(=O)Nc3cc(C)ccc3C)nc3c(oc4ccccc43)c2=O)c1	-4.8%
CCn1c(=O)n(-c2ccc(C)c(F)c2)c(=O)c2sc3ccccc3c21	-4.88%
CCCCN1C(N)=NC[C@H]1Cc1ccc(O)cc1	active: 47.7%
COc1ccc(-c2cc(C(=O)Oc3ccccc3)c3cc(C)ccc3n2)cc1	13%
COc1ccc(C2=NC3(CCCCC3)N(CC(=O)Nc3ccc(C(C)C)cc3)C2=O)cc1	4.37%
CCOCCCNC(=O)c1ccc2nc(CCc3ccccc3)oc2c1	9.41%
O=C(Nc1ccc(Cl)c(C(F)(F)F)c1)NC1CC2CCCC(C1)N2Cc1ccccc1 (configuration not stated)	active: 47.5%
O=C(COC(=O)c1cc(-c2cccs2)nc2ccccc12)c1ccccc1	-9.31%
CCOC(=O)c1oc2ccc(S(=O)(=O)n3nc(-c4ccccc4OC)cc3N)cc2c1C	23.7%
O=C1C2CCCN2C(c2ccccc2)N1c1nccs1 (configuration not stated)	active: 66.8%
CCCN(CCC)CCCNC(=O)Cn1cnc2sc(C)c(S(=O)(=O)N3CCCCC3)c2c1=O	24.7%
CCCN(Cc1cccs1)C(=O)Nc1cc(Cl)c(OC)cc1OC	7.13%
Cn1c(=O)c2c(c3ccccc31)OC(=O)CC2c1ccc(C(F)(F)F)cc1 (configuration not stated)	0.326%
O=C(Nc1ccc2oc(-c3cccc4c(Br)cccc34)nc2c1)c1ccc(F)cc1	3.16%
CCc1ccc(NC(=O)C(NS(=O)(=O)c2cccs2)C(C)C)cc1 (configuration not stated)	-2.98%
CCCCN(C)CCNC(=O)c1ccc2c(=O)n(CCc3ccccc3)c(=O)[nH]c2c1	-11.8%
